# The full ranking holds about 33,000 sequences; the median of “E-score (-0.5 to 0.5)” is about -0.041, and the highest 2% start at about 0.37. The list shows a part of the results.
# Target: T1, Ecm22 (UniProt Q05958)
# T1 sequence: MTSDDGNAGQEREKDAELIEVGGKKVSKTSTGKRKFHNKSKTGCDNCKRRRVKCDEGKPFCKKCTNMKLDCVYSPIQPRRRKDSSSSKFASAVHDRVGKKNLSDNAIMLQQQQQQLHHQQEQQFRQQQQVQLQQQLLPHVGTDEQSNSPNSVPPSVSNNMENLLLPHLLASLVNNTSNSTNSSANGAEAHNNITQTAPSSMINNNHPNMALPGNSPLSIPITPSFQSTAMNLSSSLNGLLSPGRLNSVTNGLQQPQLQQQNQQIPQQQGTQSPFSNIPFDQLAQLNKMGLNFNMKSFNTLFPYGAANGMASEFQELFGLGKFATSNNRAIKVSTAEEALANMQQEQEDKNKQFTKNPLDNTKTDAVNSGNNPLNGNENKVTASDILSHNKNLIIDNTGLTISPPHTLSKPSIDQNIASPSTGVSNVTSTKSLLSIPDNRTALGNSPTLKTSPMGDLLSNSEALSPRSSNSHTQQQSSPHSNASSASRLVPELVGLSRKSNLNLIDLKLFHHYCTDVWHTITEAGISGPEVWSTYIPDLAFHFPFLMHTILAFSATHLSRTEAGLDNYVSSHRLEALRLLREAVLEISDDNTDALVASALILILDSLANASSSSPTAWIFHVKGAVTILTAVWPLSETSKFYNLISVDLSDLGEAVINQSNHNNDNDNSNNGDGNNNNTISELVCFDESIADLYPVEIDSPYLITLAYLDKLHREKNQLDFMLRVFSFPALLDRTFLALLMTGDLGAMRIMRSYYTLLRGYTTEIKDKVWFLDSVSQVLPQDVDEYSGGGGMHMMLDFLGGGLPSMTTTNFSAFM
# Assay: PBM E-score (8-mer binding enrichment) (E-score (-0.5 to 0.5)); higher = stronger / more preferred TF binding; most listed sequences are background and not binding sites
# Conditions: protein concentration: 200 nM; construct: GST-full length
# Method: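 Universal 'all 10-mer' protein binding microarrays (Agilent AMADID 015681) probed with GST-tagged S. cerevisiae TFs (full-length or DBD) made by in vitro transcription/translation (PURExpress), about 100-200 nM. Bound TF was detected with fluorescent anti-GST. Each ungapped 8-mer (which stands for itself and its reverse complement) is scored by the PBM enrichment score (E-score), a modified Wilcoxon-Mann-Whitney statistic from -0.5 to +0.5, computed with the Universal PBM Analysis Suite. Scale: above 0.35 generally sequence-specific binding.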
row,Sequence,PBM E-score
1,AATATAAC,0.00669
2,AAATGGTT,-0.141
3,CGCCCGAC,0.0719
4,ACACGAGA,0.265
5,CAGTCCAA,-0.301
6,ATGGGCCA,-0.115
7,CTAGTACC,-0.121
8,ACGAGAAG,0.313
9,GTAGGATA,-0.0675
10,AATCCACG,-0.0999
11,TAAGCATA,0.121
12,ATGAAGTC,-0.185
13,GCACGTCC,-0.0435
14,CGCGCGCA,0.203
15,ATCCTCGC,0.193
16,AACGGGAC,0.258
17,TGTTCTAA,-0.023
18,CACCCCGA,-0.0815
19,ACTATACC,0.0402
20,CGTACGGA,0.373
21,CCTAGAGG,-0.226
22,AAGTTACT,0.0189
23,GTTGACCA,-0.16
24,ACCCGGGC,-0.159
25,ATAAGCAG,-0.0164

row,Sequence,PBM E-score
1,ATATCTCG,0.23
2,CATGCGTC,-0.133
3,AGCCGAGC,0.167
4,GAGCGAAC,0.166
5,CGGTATGA,-0.00246
6,GAGCGTCA,-0.107
7,TCAATACA,-0.0389
8,AGCGAGTG,0.324
9,AATGAAAG,-0.0378
10,AAGAGTCA,-0.134
11,ATAACACC,0.0151
12,GTGTGCTA,-0.0635
13,AGTCGACG,0.102
14,TGGCGCAA,0.0222
15,GCCGTGAA,-0.117
16,ATTAACTC,0.0465
17,AGAGCACC,-0.191
18,GGTGTCTA,-0.116
19,GGGTGAAA,-0.0786
20,AGATTAAG,-0.0939
21,AGGGTAGC,-0.177
22,CAATGTCA,0.0639
23,ACTATCGG,0.0388
24,ACGTAATC,-0.0452
25,CTTCCGTA,0.319

row,Sequence,PBM E-score
1,TCACGGCA,-0.106
2,CCGAGGCG,0.0444
3,ACCCCTGA,0.00437
4,ATGGATTC,-0.138
5,AACCCCGG,0.0245
6,CCACATCA,-0.278
7,ACTCTGTG,-0.00932
8,AAGGTCAT,-0.16
9,CTGTAACA,-0.236
10,AAAAAAGT,-0.0817
11,AATTGAGT,0.0269
12,CGGTGCCC,-0.0958
13,ATCCAAGG,-0.298
14,GGATGACA,-0.0953
15,CTTAGTTA,0.037
16,ACAGTCGG,0.0297
17,AGTCCTAA,-0.019
18,TAACACGA,0.252
19,TGGACTAA,-0.0691
20,AGCAAAAA,-0.279
21,ACACACGT,-0.0743
22,CTGGGACC,-0.177
23,CCGCGATC,0.108
24,CATTCCAC,-0.133
25,GGCAAGCA,-0.101

row,Sequence,PBM E-score
1,ACTGTGAC,-0.232
2,AACCATAG,-0.0556
3,CTGCTCAA,-0.201
4,GGCTTAGA,-0.274
5,AACTCCAG,-0.154
6,AATAAGGA,-0.11
7,ATTTAAAG,-0.126
8,ACTTCACT,-0.318
9,AGTTGGCA,-0.0584
10,GCAATGAA,0.119
11,GTGATAGA,0.015
12,GCGGAAGC,0.0467
13,CAAGCATG,-0.128
14,CAATTCAA,-0.0186
15,ACCTTAAT,-0.0853
16,AATCGGGC,-0.02
17,CGACGGGC,0.179
18,CATTCGCG,0.169
19,CTAACGGC,-0.104
20,AACTTAGC,-0.215
21,ACAATCCA,-0.0163
22,AGATAAAG,-0.0492
23,ATTTAAAT,-0.00534
24,GGATTGCC,-0.0306
25,ACACGAGC,0.275

row,Sequence,PBM E-score
1,ATGACTCG,0.0445
2,ATTTCGGC,0.0899
3,CCCTTTGC,-0.00471
4,AGTGTTTA,0.052
5,CAGCTGCC,-0.256
6,AGCCAAGA,-0.121
7,GTCAGTGA,0.0507
8,TCCGATCA,0.0828
9,ACATATAT,0.127
10,CACTACGG,-0.0378
11,ACGACGGC,0.37
12,AGTGACGG,-0.278
13,ACTTTGCC,-0.0146
14,AGAGAAAA,-0.176
15,GTATATAA,0.321
16,ATTGGACG,-0.148
17,ATGAGATA,-0.134
18,TCCGAGGA,0.239
19,CCCGTCTC,0.181
20,CCGGTCCG,0.114
21,GGACTTAC,-0.175
22,GATTGGCA,-0.139
23,AGCGTATC,0.0945
24,CGTAGGCC,-0.0393
25,GCCCTCGA,-0.259

row,Sequence,PBM E-score
1,ACGAGCCT,0.407
2,CTACCCTC,-0.251
3,ACCAGCAA,0.101
4,AGCTAGAC,0.0658
5,ATGGGTTG,-0.0214
6,CTAAGCAG,-0.11
7,GCACCCAA,0.00157
8,TCAATCCA,0.0336
9,GCGATCAA,0.114
10,GTCATGTA,0.00064
11,AAAGAGAC,-0.126
12,ATGCATCG,0.126
13,GAATGTTA,0.00854
14,AGCGTCCG,0.155
15,AGTGTGAA,0.00525
16,AATTTAGG,0.104
17,ACGGCGAC,0.21
18,GATGCTAA,0.0979
19,ACTCCGGC,0.0584
20,AAGCATAA,-0.13
21,GACAACTA,-0.0257
22,ATCGTAGC,0.385
23,AGAGGCAT,0.0809
24,AGACATAC,-0.11
25,CGGATTTA,0.128

row,Sequence,PBM E-score
1,CCAGCAAC,0.109
2,ATACAGTA,0.196
3,CAGCCGCG,0.0836
4,CCGGGCAG,0.0493
5,ACCGTGAC,-0.185
6,ACTTGACC,-0.149
7,AAAAATGG,-0.0731
8,TCCATACA,0.00831
9,CGTGGTAC,0.172
10,TATTTCCA,-0.00609
11,CGGAGCCC,-0.234
12,AGAAGACA,0.011
13,AAGCGTTG,-0.0699
14,AGGAGAGC,0.00382
15,CTATAGCA,-0.145
16,CATTCAAG,-0.00794
17,CTACTTAA,-0.0047
18,GAGTATGC,0.105
19,CCTCCGTA,0.262
20,AGTCCTAG,-0.375
21,GACACGTA,0.0434
22,GGCTCACA,-0.154
